Reference: PubChem BioAssay AID485294 (National Center for Advancing Translational Sciences (NCATS), 2010)
About 150 (0.041%) of roughly 370,000 compounds were called active. This list was built around the results that the source calls inconclusive (neither active nor inactive); the mix of calls is not that of the screen. Calls come from the whole dose curve; as a rule, active = well fitted inhibition curve with a large enough effect; inconclusive = small, poorly fitted or top-dose-only effect; inactive = flat fitted curve, though single readings scatter. Potencies of inconclusive entries are left out as doubtful fits.

Target: Beta-lactamase (Escherichia coli (strain K12)) (UniProt P00811)
Sequence of UniProt P00811 (P00811 whole entry, looked up): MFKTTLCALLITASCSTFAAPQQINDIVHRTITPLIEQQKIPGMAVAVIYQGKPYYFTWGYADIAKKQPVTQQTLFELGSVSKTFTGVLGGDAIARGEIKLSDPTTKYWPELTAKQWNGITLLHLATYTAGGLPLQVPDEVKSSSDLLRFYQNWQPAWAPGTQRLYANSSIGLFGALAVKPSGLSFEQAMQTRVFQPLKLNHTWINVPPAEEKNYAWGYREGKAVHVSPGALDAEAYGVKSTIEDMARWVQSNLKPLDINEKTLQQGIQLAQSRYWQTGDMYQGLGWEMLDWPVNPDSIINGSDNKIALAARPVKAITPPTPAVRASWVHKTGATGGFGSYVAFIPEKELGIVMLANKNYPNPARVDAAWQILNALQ
Assay: qHTS Inhibitors of AmpC Beta-Lactamase (assay with detergent); note: nearly all actives have a fitted effect of over 25% in size
Settings: AmpC hydrolysis of nitrocefin, absorbance 480 nm, 0.01% Triton; series mostly up to 114 µM
In short: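 AmpC (5.3 nM in the dispensed reagent) in 20 mM phosphate pH 7.0 with 0.01% (detergent screen) or 0.0001% Triton X-100 was preincubated with compounds for 15 min at room temperature. Nitrocefin was then added from an 800 uM solution, and hydrolysis was followed at 480 nm.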
Potency is the fitted concentration of half-maximal effect; tags give direction and shape of the fitted curve.

Row | SMILES | Potency
1 | COc1ccccc1C(=O)NC(=O)COC(=O)C1CC1C (stereo unspecified) | inconclusive [inhibitor, full curve]
2 | CN(C)[C@@H]1C(=O)C(C(=O)NCN2CCCC2)=C(O)[C@@]2(O)C(=O)C3=C(O)c4c(O)cccc4[C@@](C)(O)C3CC12 (stereo partly specified) | inconclusive [inhibitor, partial curve]
3 | CCN(CC(=O)Nc1c(F)cccc1F)C(=O)CCCOc1ccc(OC)cc1 | inconclusive [inhibitor, partial curve]
4 | COC(=O)c1ccccc1NC(=O)c1cc([N+](=O)[O-])nn1Cc1ccccc1 | inconclusive [inhibitor, full curve]
5 | O=[N+]([O-])[N-][n+]1cnn(Cc2ccc(Cl)cc2)c1 | inconclusive [inhibitor, partial curve]
6 | COCCCn1c(SCC(=O)Nc2ccccc2OC)nc2c(sc3ccccc32)c1=O | inactive
7 | CCOC(=O)CSc1nnc(-c2ccco2)n1C | inconclusive [inhibitor, full curve, poor fit]
8 | CC1(C)C(=O)N(CCN2CCC(C(=O)c3ccc(F)cc3)CC2)c2ccccc21 | inconclusive [inhibitor, full curve, poor fit]
9 | COc1cc2cccc(OC)c(=O)c2c(O)c1OC | inconclusive [inhibitor, single point]
10 | CCN1CCN(C(=O)CN(c2ccc(F)c(Cl)c2)S(C)(=O)=O)CC1 | inconclusive [inhibitor, single point]
11 | CC(=O)Nc1cccc(OCC(=O)NCCC2=CCCCC2)c1 | inactive
12 | CCCC(=O)Nc1sc(C)c(-c2ccc(OC)cc2)c1C#N | inconclusive [inhibitor, partial curve, poor fit]
13 | O=C(COc1ccc(F)c(Cl)c1)N1CCN(c2ccccn2)CC1 | inactive
14 | O=C(NNS(=O)(=O)c1ccc(Cl)cc1)c1ccc(S(=O)(=O)N2CCCCC2)cc1 | inconclusive [inhibitor, partial curve, poor fit]
15 | O=C1NC(=O)c2cc(NC(=O)C3CCCO3)ccc21 (stereo unspecified) | inconclusive [inhibitor, full curve]
16 | CCc1cc(=O)oc2c(C)c(OCC(=O)NCc3ccccn3)ccc12 | inconclusive [inhibitor, partial curve]
17 | O=C(c1cccs1)c1cn(CCOc2ccccc2Cl)c2ccccc12 | inactive
18 | Cc1ccccc1-c1nc(CS(=O)CC(=O)NCCN2CCN(Cc3ccccc3)CC2)c(C)o1 (stereo unspecified) | inconclusive [inhibitor, partial curve, poor fit]
19 | CCN(CC)C(=O)c1ccc(CS(=O)(=O)Cc2ccccc2)cc1 | inconclusive [inhibitor, full curve, poor fit]
20 | CCn1c(NC)cc(=O)n(C)c1=O | inconclusive [inhibitor, single point]
21 | CCCCn1c(SCC(=O)N2CCC(C)CC2)nc2ccsc2c1=O | inconclusive [inhibitor, single point]
22 | O=C(/C=C/Sc1ccc(C(F)(F)F)cn1)c1ccccc1 | inactive

Row | SMILES | Potency
23 | Clc1ccccc1/C=N/c1cc(-c2ccccc2)nn1-c1ccccc1 | inactive
24 | O=C(Cn1cnc2c(cnn2-c2ccccc2)c1=O)NC1CCCC1 | inactive
25 | CCn1c(SCC(=O)c2cc(C)ccc2C)nc2cc(S(=O)(=O)N3CCOCC3)ccc21 | inconclusive [inhibitor, full curve]
26 | CCSCCNC(=O)c1cncc(Br)c1 | inconclusive [inhibitor, partial curve, poor fit]
27 | O=C(O)c1cccc(N2C(=O)C3CC=CCC3C2=O)c1 (stereo unspecified) | inconclusive [inhibitor, partial curve, poor fit]
28 | Cc1cc(C)cc(N2C(=O)CC(n3nc(C)cc3C)C2=O)c1 (stereo unspecified) | inconclusive [inhibitor, partial curve]
29 | O=C(NCc1cccc(C(F)(F)F)c1)c1cc(Cl)cc(Cl)c1 | inactive
30 | CN(Cc1ccccc1)C(=O)COC(=O)C1CCN(S(=O)(=O)c2ccc(Cl)c(C(F)(F)F)c2)CC1 | inconclusive [inhibitor, full curve]
31 | O=C(Cn1c(=O)sc2ccccc21)Nc1ccc2c(c1)OCCO2 | inconclusive [inhibitor, partial curve, poor fit]
32 | CCCCc1ccc(NC(=O)C2CCN(S(C)(=O)=O)CC2)cc1 | inconclusive [inhibitor, full curve, poor fit]
33 | CCOC(=O)N1CCN(C(=S)NC2CCCCC2)CC1 | inconclusive [inhibitor, partial curve, poor fit]
34 | Cc1ccc(S(=O)(=O)N2CCOC2CNC(=O)C(=O)NCc2cccnc2)cc1 (stereo unspecified) | inconclusive [inhibitor, partial curve]
35 | CC(C)c1ccc(NC(=O)CC2Oc3ccccc3NC2=O)cc1 (stereo unspecified) | inconclusive [inhibitor, single point]
36 | O=C(Nc1nnc(Cc2ccccc2F)s1)c1ccccc1Cl | inconclusive [inhibitor, full curve, poor fit]
37 | O=C(c1ccc(S(=O)(=O)Cc2ccccc2F)c([N+](=O)[O-])c1)N1CCCC1 | inactive
38 | CCOC(=O)Cn1c(=N)n(CCOc2cccc(C)c2)c2ccccc21 | inconclusive [inhibitor, single point]
39 | Cc1c(C(=O)N2CCCC2)c(S(=O)(=O)NCCc2ccccc2)c(C)n1C | inactive
40 | O=C(NCCc1ccc(Cl)cc1)C1CCN(C(=O)c2sccc2-n2cccc2)CC1 | inconclusive [inhibitor, full curve]
41 | Nc1c(C(=O)Nc2ccc3c(c2)OCCO3)nnn1Cc1ccc(Cl)cc1 | inconclusive [inhibitor, full curve, poor fit]
42 | Fc1ccccc1CN1CCCC(NC2CCC2)C1 (stereo unspecified) | inconclusive [inhibitor, full curve, poor fit]
43 | Cc1nn(CCC(=O)NNC(=S)Nc2ccccc2)c(C)c1Br | inconclusive [inhibitor, single point]
44 | O=C(COC(=O)/C=C/c1ccccc1)NNC(=O)c1ccc([N+](=O)[O-])cc1 | inconclusive [inhibitor, partial curve]

Row | SMILES | Potency
45 | CC(=O)Nc1nc2c(ccc3ccccc32)s1 | inconclusive [inhibitor, full curve, poor fit]
46 | N=c1c(S(=O)(=O)c2ccc(Cl)cc2)cc2c(=O)n3ccccc3nc2n1C1CCCC1 | inconclusive [inhibitor, partial curve]
47 | CC(C)Cn1cc(C(=O)NCC2CCCO2)c2c3ccccc3n(C)c2c1=O (stereo unspecified) | inconclusive [inhibitor, partial curve, poor fit]
48 | O=C(Nc1ccccc1)OCC(CN1CCCCC1)OC(=O)Nc1ccccc1 (stereo unspecified) | inconclusive [inhibitor, partial curve, poor fit]
49 | Cc1ccc(C(=O)n2nc(C)c(S(=O)(=O)N3CCOCC3)c2C)cc1C | inactive
50 | COc1cn(-c2ccccc2)nc1C(=O)Nc1ccccc1 | inconclusive [inhibitor, full curve, poor fit]
51 | CC1CN(C(=S)SCC(=O)c2ccc(Cl)cc2)CC(C)O1 (stereo unspecified) | inconclusive [inhibitor, partial curve]
52 | O=C(Nc1nc(COc2ccccc2)cs1)c1ccccc1F | inconclusive [inhibitor, full curve, poor fit]
53 | CNC(=O)CN(C1CCCCC1)S(=O)(=O)c1ccc(OC)c(Cl)c1 | inconclusive [inhibitor, full curve]
54 | CC(C)C(=O)Nc1cccc(NC(=O)c2ccc([N+](=O)[O-])cc2Cl)c1 | inconclusive [inhibitor, single point]
55 | O=C(CCN1C(=O)c2ccncc2C1=O)Nc1ccc2c(c1)OCCO2 | inconclusive [inhibitor, partial curve, poor fit]
56 | CCOC(=O)c1c(NC(=O)c2ccc(N3C(=O)C4C5C=CC(C5)C4C3=O)cc2)sc2c1CCCC2 (stereo unspecified) | inconclusive [inhibitor, single point]
57 | COc1ccccc1NCC(=O)c1ccc(Cl)cc1 | inactive
58 | C=CCn1c(C(C)NC(=O)COC)nc2ccccc21 (stereo unspecified) | inconclusive [inhibitor, full curve]
59 | Cc1cc(C(F)F)n2ncc(C(=O)N3CCc4ccccc4C3)c2n1 | inconclusive [inhibitor, full curve, poor fit]
60 | CC(C)Cc1nnc(NC(=O)CCC(=O)N2CCN(Cc3ccc(F)cc3)CC2)s1 | inconclusive [inhibitor, full curve, poor fit]
61 | O=C(CCc1ccccc1)NC(c1cccs1)c1cc(Cl)c2cccnc2c1O (stereo unspecified) | inactive
62 | CC1CC(C)CN(S(=O)(=O)c2cc3c(cc2Cl)NC(=O)CO3)C1 (stereo unspecified) | inconclusive [inhibitor, partial curve, poor fit]
63 | Cc1cc(C)c(NC(=O)/C=C\C(=O)O)c(Cl)c1 | inactive
64 | Cc1c(NC(=O)c2ccccc2NC(=O)c2ccccc2)cccc1C(=O)O | inconclusive [inhibitor, full curve, poor fit]
65 | O=[N+]([O-])c1ccc(/C=N/n2cnc3ccccc32)s1 | inactive
66 | O=C(Cn1c(=O)oc2ccccc21)c1ccccc1 | inconclusive [inhibitor, full curve, poor fit]
